# From paper PMC11629888
# By UniProt entry, the sequences of proteins in these tests, tags left out. Residues count along the entry.
# UniProt P14625, residues 22-803: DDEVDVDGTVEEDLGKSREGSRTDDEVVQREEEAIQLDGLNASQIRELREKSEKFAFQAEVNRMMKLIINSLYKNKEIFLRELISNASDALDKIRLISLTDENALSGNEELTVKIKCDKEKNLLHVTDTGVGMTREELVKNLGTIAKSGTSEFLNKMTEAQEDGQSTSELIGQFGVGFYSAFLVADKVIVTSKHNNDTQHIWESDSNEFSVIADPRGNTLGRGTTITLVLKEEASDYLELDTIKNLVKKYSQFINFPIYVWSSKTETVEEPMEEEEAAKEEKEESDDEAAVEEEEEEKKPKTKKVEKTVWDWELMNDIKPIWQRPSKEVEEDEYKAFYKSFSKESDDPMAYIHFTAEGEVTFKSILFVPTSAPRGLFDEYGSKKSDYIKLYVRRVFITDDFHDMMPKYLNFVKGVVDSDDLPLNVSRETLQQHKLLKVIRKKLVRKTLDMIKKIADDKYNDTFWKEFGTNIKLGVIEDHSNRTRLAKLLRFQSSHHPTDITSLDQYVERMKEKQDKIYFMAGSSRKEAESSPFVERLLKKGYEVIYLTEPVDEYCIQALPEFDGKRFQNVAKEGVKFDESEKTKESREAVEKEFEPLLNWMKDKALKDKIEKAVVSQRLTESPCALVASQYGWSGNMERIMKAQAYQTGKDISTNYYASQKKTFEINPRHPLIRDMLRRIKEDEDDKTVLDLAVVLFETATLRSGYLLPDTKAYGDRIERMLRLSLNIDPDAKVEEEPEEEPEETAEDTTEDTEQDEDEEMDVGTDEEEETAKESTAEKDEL
# UniProt P19438, residues 30-455: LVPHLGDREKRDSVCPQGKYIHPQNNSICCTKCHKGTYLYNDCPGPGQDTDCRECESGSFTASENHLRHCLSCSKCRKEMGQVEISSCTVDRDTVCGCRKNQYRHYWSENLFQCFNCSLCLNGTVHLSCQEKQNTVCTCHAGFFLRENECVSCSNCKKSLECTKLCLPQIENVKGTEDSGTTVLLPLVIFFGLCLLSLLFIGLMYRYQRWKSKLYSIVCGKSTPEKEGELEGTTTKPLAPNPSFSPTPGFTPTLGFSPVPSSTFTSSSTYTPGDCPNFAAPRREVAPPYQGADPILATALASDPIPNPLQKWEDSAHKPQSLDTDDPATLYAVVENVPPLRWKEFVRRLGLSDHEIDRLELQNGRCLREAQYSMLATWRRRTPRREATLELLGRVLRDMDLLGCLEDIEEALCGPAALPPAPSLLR
# No constants are given. Whether binding was seen depends on the method and setting. For part of these data: Binding seen in cells or lysates may run through a third protein. Some results given as binding are weak or reduced against the parent protein; the word gives no strength. For part of these data: Tags and fused reporters may be left off the sequences shown.
# T1: CCDC134 (wildtype), co-expressed in HEK293T cells (human) (UniProt Q9H6E4)
# T1 sequence: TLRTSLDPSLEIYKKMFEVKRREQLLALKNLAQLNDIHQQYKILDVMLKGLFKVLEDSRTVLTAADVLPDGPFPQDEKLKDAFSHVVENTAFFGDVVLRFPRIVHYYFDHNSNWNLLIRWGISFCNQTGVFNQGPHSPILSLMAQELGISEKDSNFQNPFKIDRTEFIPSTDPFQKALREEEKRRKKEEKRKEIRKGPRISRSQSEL
# T2: TLR7-V5, stably expressed in CAL-1 cells (UniProt Q9NYK1)
# T2 sequence: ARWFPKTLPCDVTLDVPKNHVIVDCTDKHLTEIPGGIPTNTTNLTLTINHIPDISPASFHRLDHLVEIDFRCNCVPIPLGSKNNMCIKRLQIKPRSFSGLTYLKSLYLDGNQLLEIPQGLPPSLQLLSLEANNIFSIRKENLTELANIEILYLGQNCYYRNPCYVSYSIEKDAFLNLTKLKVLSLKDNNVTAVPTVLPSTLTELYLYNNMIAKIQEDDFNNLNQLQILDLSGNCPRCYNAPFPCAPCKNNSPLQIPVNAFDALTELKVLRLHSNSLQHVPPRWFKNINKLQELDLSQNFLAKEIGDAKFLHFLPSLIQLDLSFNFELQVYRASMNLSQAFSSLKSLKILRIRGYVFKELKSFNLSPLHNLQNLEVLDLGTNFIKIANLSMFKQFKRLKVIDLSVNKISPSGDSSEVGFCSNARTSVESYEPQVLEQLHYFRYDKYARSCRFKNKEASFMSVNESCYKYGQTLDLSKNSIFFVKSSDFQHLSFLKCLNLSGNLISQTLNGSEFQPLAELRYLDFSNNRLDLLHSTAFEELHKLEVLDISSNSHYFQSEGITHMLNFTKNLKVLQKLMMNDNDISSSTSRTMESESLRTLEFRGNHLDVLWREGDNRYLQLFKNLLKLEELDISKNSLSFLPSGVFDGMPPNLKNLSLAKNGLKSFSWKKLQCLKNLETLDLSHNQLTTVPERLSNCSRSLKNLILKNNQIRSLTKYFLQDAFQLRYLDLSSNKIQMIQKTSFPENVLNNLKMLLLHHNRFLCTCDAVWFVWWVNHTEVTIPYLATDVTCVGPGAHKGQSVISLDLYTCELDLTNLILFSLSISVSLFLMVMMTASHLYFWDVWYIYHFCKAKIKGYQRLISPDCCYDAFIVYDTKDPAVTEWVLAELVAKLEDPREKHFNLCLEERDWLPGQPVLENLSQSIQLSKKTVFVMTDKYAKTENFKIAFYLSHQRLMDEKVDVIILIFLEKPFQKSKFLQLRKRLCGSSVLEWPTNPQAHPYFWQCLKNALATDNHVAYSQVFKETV
# T3: Flag-CCDC134 (internal Flag tag), stably reconstituted in CCDC134 knockout CAL-1 cells (human) (UniProt Q9H6E4)
# T3 sequence: T1 sequence
# B1: TLR7, expressed in HEK293T cells (receptor, UniProt Q9NYK1 27-1049)
# chain: T2 sequence
# B2: recombinant Flag-CCDC134 (protein, UniProt Q9H6E4 23-229)
# chain: T1 sequence
# B3: endogenous CNPY3 in CAL-1 cells (protein, UniProt Q9BT09 31-278)
# chain: GPSQAGAEENDWVRLPSKCEVCKYVAVELKSAFEETGKTKEVIGTGYGILDQKASGVKYTKSDLRLIEVTETICKRLLDYSLHKERTGSNRFAKGMSETFETLHNLVHKGVKVVMDIPYELWNETSAEVADLKKQCDVLVEEFEEVIEDWYRNHQEEDLTEFLCANHVLKGKDTSCLAEQWSGKKGDTAALGGKKSKKKSSRAKAAGGRSSSSKQRKELGGLEGDPSPEEDEGIQKASPLTHSPPDEL
# B4: CCDC134 (wildtype), co-expressed in HEK293T cells (protein, UniProt Q9H6E4 23-229)
# chain: T1 sequence
# B5: UNC93B1, expressed in HEK293T cells (protein, UniProt Q9H1C4 1-597)
# chain: MEAEPPLYPMAGAAGPQGDEDLLGVPDGPEAPLDELVGAYPNYNEEEEERRYYRRKRLGVLKNVLAASAGGMLTYGVYLGLLQMQLILHYDETYREVKYGNMGLPDIDSKMLMGINVTPIAALLYTPVLIRFFGTKWMMFLAVGIYALFVSTNYWERYYTLVPSAVALGMAIVPLWASMGNYITRMAQKYHEYSHYKEQDGQGMKQRPPRGSHAPYLLVFQAIFYSFFHLSFACAQLPMIYFLNHYLYDLNHTLYNVQSCGTNSHGILSGFNKTVLRTLPRSGNLIVVESVLMAVAFLAMLLVLGLCGAAYRPTEEIDLRSVGWGNIFQLPFKHVRDYRLRHLVPFFIYSGFEVLFACTGIALGYGVCSVGLERLAYLLVAYSLGASAASLLGLLGLWLPRPVPLVAGAGVHLLLTFILFFWAPVPRVLQHSWILYVAAALWGVGSALNKTGLSTLLGILYEDKERQDFIFTIYHWWQAVAIFTVYLGSSLHMKAKLAVLLVTLVAAAVSYLRMEQKLRRGVAPRQPRIPRPQHKVRGYRYLEEDNSDESDAEGEHGDGAEEEAPPAGPRPGPEPAGLGRRPCPYEQAQGGDGPEEQ
# Legend:
# [1] = biological target: T1, CCDC134 (wildtype), co-expressed in HEK293T cells (human); assay: co-IP; proteins co-expressed in HEK293T by transfection, harvested 24 h later; lysis and washes in E1A buffer (50 mM HEPES pH 7.4, 250 mM NaCl, 5 mM EDTA, 1% NP40); anti-V5 agarose, StrepTactin Sepharose or anti-Flag M2 gel, 3 h or overnight at 4°C; immunoblot
# [2] = biological target: T2, TLR7-V5, stably expressed in CAL-1 cells; assay: co-IP; V5 immunoprecipitation from TLR7-V5-expressing CAL-1 lines (control, CCDC134 knockout, CNPY3 knockout), E1A buffer; endogenous Gp96 and CNPY3 detected by immunoblot
# [3] = biological target: T3, Flag-CCDC134 (internal Flag tag), stably reconstituted in CCDC134 knockout CAL-1 cells (human); assay: co-IP; Flag immunoprecipitation from sgCCDC134 CAL-1 cells stably reconstituted with Flag-CCDC134 (2-4 x 10^7 cells), E1A buffer; endogenous partners detected by immunoblot
# [4] = biological target: recombinant Gp96-HA (human) (UniProt P14625); assay: co-IP; purified recombinant Flag-CCDC134 and Gp96-HA preincubated overnight at 4°C, resuspended in E1A buffer (50 mM HEPES pH 7.4, 250 mM NaCl, 5 mM EDTA, 1% NP40), anti-HA agarose beads 3 h at 4°C; immunoblot; both purified
Molecule,binding [1],further results
"Gp96 (wildtype), expressed in HEK293T cells (from UniProt P14625 22-803)",binds,
endogenous Gp96 in CAL-1 cells (from UniProt P14625 22-803),,binding [2]: binds; binding [3]: binds
TNFR1-flag (from UniProt P19438 30-455) (receptor),no binding,
B1,binds,
B2,,binding [4]: binds
B3,,binding [2]: binds
B4,binds,
B5,no binding,
